# Experimental data published in PubChem BioAssay AID1347417 (National Center for Advancing Translational Sciences (NCATS), 2020).
# Hit rate of the full screen: of about 120,000 compounds, about 5,300 (4.4%) were called active. The inconclusive results got no clear call from the source; some entries with a clear call stand among them for comparison. Calls come from the whole dose curve; as a rule, active = well fitted inhibition curve with a large enough effect; inconclusive = small, poorly fitted or top-dose-only effect; inactive = no such curve, though single readings can be large or run the other way. Where the call is inconclusive, the potency comes from a doubtful curve fit.
# Assay: qHTS Primary assay for Inhibitors of Plasmodium falciparum Dd2 growth in vitro; note: nearly all actives have a fitted effect of over 65% in size;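 for activity, negative = inhibition: plate controls were DMSO vehicle for no effect and reference drug for full effect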
# Details: P. falciparum Dd2 growth, SYBR Green, 72 h; activity, negative = inhibition: at 28.9 µM (top of the series) unless noted; series mostly up to 28.9 µM
# Outline: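 Infected erythrocytes (Dd2, 0.3% parasitemia, 2.5% hematocrit final) are added to compound in RPMI-1640/Albumax II medium, grown 72 h at 37C in low oxygen, then lysed with saponin/Triton-X containing SYBR Green and read by fluorescence.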
# Potency is the fitted concentration of half-maximal effect; tags give direction and shape of the fitted curve.
SMILES,Potency,outcome,"activity, negative = inhibition"
CCS(=O)(=O)NCC(=O)N1CCCCCNC(=O)CC1c1ccccc1 (centres undefined),inactive,,
CC(=O)N1CCCN(Cc2nnc(C(=O)N3CCC[C@@H]3C(c3ccccc3)c3ccccc3)n2-c2ccccc2)CC1,inactive,,
CO[C@@]1(C)C[C@@H](O)C12CCN(C(=O)CN1CCc3ccccc3C1)CC2,inactive,,
COc1ccccc1NC(=O)c1cc(C2CC2)nc2c1c(C)nn2-c1ccc(C)cc1,"inconclusive: 14.1 µM [inhibitor, single point]",,
Cc1ccccc1CN1CCC2(CC1)OCCN(Cc1ccccc1)C2=O,"inconclusive: 2.51 µM [inhibitor, partial curve, poor fit]",,
O=[S+]([O-])(c1cccnc1)c1nnn2c1nc(NCc1ccc(F)cc1)c1ccccc12,"inconclusive: 7.08 µM [inhibitor, single point]",,
CCCN(CCC)CCNC(=O)c1cc(-c2ccc(Br)s2)nc2ccccc12,"inconclusive: 8.91 µM [inhibitor, partial curve, poor fit]",,
CN(C)c1nc2c(c(=O)[nH]1)CCN(Cc1ccc(Br)cc1)CC2,active: 2 µM,,
CCc1cccc(NC(=O)C(CC(C)C)NS(=O)(=O)c2ccc3c(c2)oc(=O)n3C)c1 (centres undefined),"inconclusive: 11.2 µM [inhibitor, partial curve, poor fit]",,
Cc1ncoc1C(=O)N1CCC2(CCCN(CC3CCCCC3)C2=O)C1 (centres undefined),inactive,,
O=C(c1cccs1)N1CCC2(CC1)CC(N(C(=O)c1ccccc1)C1CC1)CCO2 (centres undefined),inactive,,
CC(C)CCN1CCC(N2CCN(C(=O)c3ccc(Cl)s3)CC2)C1=O (centres undefined),"inconclusive: 5.01 µM [inhibitor, partial curve]",,
COCC(=O)N1CCc2nc(-c3ccccc3)nc(-c3ccc(Cl)cc3)c2C1,"inconclusive: 1.26 µM [inhibitor, partial curve]",,
COc1ccccc1CN1CCC(CNC(=O)c2cnn(-c3ccc(C)c(C)c3)c2C2CCN(C(=O)OC(C)(C)C)CC2)CC1,"inconclusive: 1.41 µM [inhibitor, single point]",,
Cc1cc(C(=O)N2[C@H]3CC[C@@H]2c2cnc(-c4ccc(F)cc4)nc2C3)nn1C,"inconclusive: 17.8 µM [inhibitor, single point]",,
CCC1Oc2ccc(NC(=O)c3ccccc3OC(C)=O)cc2CN(Cc2ccccc2F)C1=O (centres undefined),"inconclusive: 2.51 µM [inhibitor, single point]",,
CN1c2cccnc2CN(Cc2ccc(OC(F)(F)F)cc2)CC[C@H]1CO,"inconclusive: 10 µM [inhibitor, partial curve, poor fit]",,
CC(=O)N1CCC2(CC1)CN(C(=O)c1c[nH]c3ccccc13)Cc1ccccc1O2,"inconclusive: 14.1 µM [inhibitor, partial curve, poor fit]",,
COc1ccc(CNC(=O)NCCc2noc(-c3ccncc3)n2)cc1,inactive,,
Cc1cc(C)n(CC(=O)N2CCC(N3C(=O)C4(CCCCC4)C3c3ccccc3)CC2)n1 (centres undefined),"inconclusive: 1.41 µM [inhibitor, partial curve, poor fit]",,
O=C(NCCCN1Cc2ccccc2C1)c1cccc(C2CCCNC2)c1 (centres undefined),"inconclusive: 14.1 µM [inhibitor, single point]",,
Cc1ccc(F)c(S(=O)(=O)N2CCC3(CC2)C(C(=O)O)CC(=O)N3C)c1 (centres undefined),inactive,,

SMILES,Potency,outcome,"activity, negative = inhibition"
Cc1ccccc1CC(=O)N1CCC(Oc2ncccc2C(=O)N2CCCCC2)C1 (centres undefined),"inconclusive: 3.98 µM [inhibitor, single point]",,
Cc1csc(NC(=O)[C@@H]2C[C@H](c3ccc(F)cc3)N(Cc3ccccc3Cl)C2)n1,"inconclusive: 3.55 µM [inhibitor, partial curve, poor fit]",,
O=C(c1ccoc1)N1CCN(c2nnc3ccccn23)CC1,inactive,,
CCc1[nH]c2ccc(CNC(=O)c3scc4c3OCCO4)cc2c1C,"inconclusive: 12.6 µM [inhibitor, single point]",,
Oc1ccccc1CNC1(Cc2cc(-c3ccc(F)cc3)on2)COC1,"inconclusive: 31.6 µM [inhibitor, single point]",,
Cc1noc2c(N3CCC(c4ccccc4)CC3)cc(-c3cccnc3)nc12,"inconclusive: 5.62 µM [inhibitor, full curve, poor fit]",,
CC(C)CC(=O)N1CCCCCNC(=O)[C@H]2C[C@H](C(=O)N3CCc4ccccc4C3)C[C@H]21,"inconclusive: 17.8 µM [inhibitor, single point]",,
O=C(c1cc2ccccc2[nH]1)N1CCN(C(=O)c2nnn3c2COC(c2ccc(Cl)cc2)C3)CC1 (centres undefined),"inconclusive: 2 µM [inhibitor, partial curve, poor fit]",,
CCn1cc(S(=O)(=O)N2CC(Oc3ccc(-c4nc(C)no4)cc3)C2)cn1,,inactive [at 5.79 µM],
c1ccc(CN2Cc3[nH]cnc3C[C@H]2c2nc(-c3ccccc3)no2)cc1,active: 12.6 µM,,
COc1ccc(CN2CCNc3cc(Nc4ccccc4)ncc3C2)cn1,"inconclusive: 12.6 µM [inhibitor, single point]",,
CC(C)(Oc1ccc(Cl)cc1)C(=O)Nc1cccc(-c2cn3cccnc3n2)c1,active: 11.2 µM,,
O=C(NCc1ccc2c(c1)OCO2)c1nc(-c2cccnc2)c2ccccn12,"inconclusive: 7.94 µM [inhibitor, partial curve, poor fit]",,
CCN(CC)CCNC(=O)c1ccc2c(c1)n(Cc1cccc(F)c1)c(=O)c1ccnn12,"inconclusive: 1 µM [inhibitor, partial curve, poor fit]",,
O=C(c1cc(F)ccc1F)N1CCC(n2cc(-c3nc(C4CC4)no3)nn2)C1 (centres undefined),inactive,,
O=C(NCc1ccccn1)C1CCN(C(=O)c2ncn3c2COC(c2ccc(F)cc2)C3)CC1 (centres undefined),inactive,,
CCOC(=O)N1CCN(Cc2nccn2CCOC)CC1,inactive,,
Cn1cnc(S(=O)(=O)N2CCC(Cc3nncn3CC3CC3)CC2)c1,inactive,,
O=C(c1cccc(F)c1)N1CCC(Oc2ccccc2-c2nc(-c3ccncc3)no2)C1 (centres undefined),"inconclusive: 1.58 µM [inhibitor, partial curve, poor fit]",,
Cn1nc(-c2cccs2)cc1[C@H]1CN2CC[C@H]1C[C@@H]2CNCc1ccccn1,"inconclusive: 12.6 µM [inhibitor, partial curve, poor fit]",,
Cn1nc(-c2ccc3ccccc3c2)cc1[C@H]1CN2CC[C@H]1C[C@@H]2CNS(=O)(=O)c1cccs1,active: 12.6 µM,,
COCCn1c(C)cnc1CC1CCCN(Cc2ccc(F)cc2F)C1 (centres undefined),"inconclusive: 0.251 µM [inhibitor, full curve, poor fit]",,

SMILES,Potency,outcome,"activity, negative = inhibition"
Cc1ccc(S(=O)(=O)N2CCC(OC3CCN(Cc4ccccc4)CC3)CC2)c(C)c1,"inconclusive: 2 µM [inhibitor, full curve]",,
O=C(C1CC1)N1CCC(O)(c2csc(CN3CCc4ccccc4C3)n2)CC1,inactive,,
CCC(CC)C(=O)NCc1cccnc1Oc1cccc(C(F)(F)F)c1,"inconclusive: 12.6 µM [inhibitor, partial curve, poor fit]",,
CCOc1ccc(OCC)c(Nc2ncncc2-c2nc(-c3ccccc3)no2)c1,"inconclusive: 2 µM [inhibitor, partial curve, poor fit]",,
CCOc1ccccc1CN1CCC2(CCN(CCc3ccc(OC)cc3)CC2)Oc2ccccc21,"inconclusive: 5.01 µM [inhibitor, partial curve, poor fit]",,
Cc1ccc(C(=O)NCCSc2c(C)[nH]c3ccccc23)cc1C,,,inconclusive: -37.1% [inhibitor] [at 5.79 µM]
Cn1cnnc1CC1CCN(c2ncc(C(F)(F)F)cc2Cl)CC1,"inconclusive: 10 µM [inhibitor, partial curve, poor fit]",,
Cc1ccc(CSC2=Nc3ccccc3C3=NC(CCC(=O)NCCc4ccccc4)C(=O)N23)cc1 (centres undefined),active: 10 µM,,
O=C1NC2(CCN(CC3CCCCC3)CC2)COc2ccccc21,active: 10 µM,,
CC1(C)[C@H](Cc2cc(-c3ccc(F)cc3)on2)C[C@@H]1NC1CCC1,active: 11.2 µM,,
CC1(C)C(=O)N(Cc2ccccc2)[C@H]2CN(CC3CCOCC3)C[C@@H]2[S+]1(=O)[O-],"inconclusive: 0.316 µM [inhibitor, full curve, poor fit]",,
Cc1cccc(-n2c(/C=C/c3c(C)[nH]c4ccccc34)nc3ccccc3c2=O)c1,"inconclusive: 1 µM [inhibitor, full curve]",,
COc1ccc(CNC(=O)C[C@@H]2c3nc(NC(=O)c4c(F)cccc4F)sc3C[C@@H]3[C@](C)(CO)[C@H](O)CC[C@]32C)cc1,active: 7.94 µM,,
CCCS(=O)(=O)NCCc1ncc(C)n1C(C)C,"inconclusive: 1.26 µM [inhibitor, full curve]",,
CN(C)Cc1nnc(C2CCCN(C(=O)CN(C)c3ccccc3)C2)n1C (centres undefined),"inconclusive: 4.47 µM [inhibitor, full curve, poor fit]",,
CC(=O)Nc1ccc(S(=O)(=O)N2CC[C@H](c3nc4ccccc4o3)C2)cc1,inactive,,
O=C(NCc1nnc2c(-c3nc(C4CC4)no3)cccn12)c1ccc(F)c(F)c1,"inconclusive: 1.12 µM [inhibitor, partial curve, poor fit]",,
COCCOCC(=O)N1CCC(N2C(=O)CCC2C(=O)NCc2ccccc2)CC1 (centres undefined),inactive,,
COc1ccc(NC(=O)OC[C@H]2C[C@@H]3CCN2C[C@@H]3c2cc(C3CCCC3)nc(-c3ccncc3)n2)cc1,active: 1.78 µM,,
CC(C)(C)CC(=O)Nc1nc2c(s1)C[C@@H]1[C@](C)(CO)[C@H](O)CC[C@@]1(C)[C@@H]2CC(=O)NC1CCCC1,"inconclusive: 17.8 µM [inhibitor, single point]",,
